Sequences and labels used below:
B1: glmS ribozyme (parent)
chain: AUAAAAGCGCCAGAACUACAGAAAUGUAGUUGACGAGGAGGAGGUUUAUCGAAUUUUCGGCGGAUGCCUCCAAA

± gives the standard error. Variants at the floor of the assay are shown more often than the library holds them.

Variants of B1 are the subject of the first series. The series is described as follows: self-cleavage kobs at 2500 uM GlcN6P; higher = faster cleavage; RNA array. The following applies: with glucosamine-6-phosphate. An outline of the steps: (§1)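 The measurements used barcoded ribozyme variants on sequenced MiSeq chips, transcribed in situ by E. coli RNA polymerase and tracked at 37 °C with a hybridised Cy3 probe. Glucosamine-6-phosphate, 40 μM to 10 mM in HEPES/KCl/Mg(OAc)2 buffer, was flowed in while tiles were imaged over ~14 h. Baseline-normalised signals, also normalised to non-cleaving reference variants, gave per-tile medians that were fit to one- or two-exponential decays for kobs. kcat and KM resulted from weighted Michaelis–Menten fits across concentrations.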
Consider G35U G41C G43U C50U, for which the “self-cleavage kobs at 2500 uM GlcN6P” value was under 1e-05 s⁻¹.
On the same count and under the same terms, then G29A U31G U54G, with 6.58e-05 ± 3.2e-05 s⁻¹.
Take A33U G35C A42U C50U C68A: the “self-cleavage kobs at 2500 uM GlcN6P” value is under 1e-05 s⁻¹.
On to G26U C58U, for which the “self-cleavage kobs at 2500 uM GlcN6P” value came out at 6.46e-05 ± 1.7e-05 s⁻¹.
Same read-out and setting: then G32U A36C C67G, with under 1e-05 s⁻¹; and G35A G40A G60U, with under 1e-05 s⁻¹.
G32U G38A G43U A53G: the “self-cleavage kobs at 2500 uM GlcN6P” value was under 1e-05 s⁻¹.
Still for that read-out and setting: then C34A C58G C67U, with under 1e-05 s⁻¹.
Same read-out and setting: then U31G U49C G63U A64U, with under 1e-05 s⁻¹.
The same measure, in the same setting: in the case of G29C A36C G41U it was under 1e-05 s⁻¹; in that of A33U U47A A52U, under 1e-05 s⁻¹.
Regarding G32U G35U A53G C58A, the “self-cleavage kobs at 2500 uM GlcN6P” value is under 1e-05 s⁻¹.
Still for that read-out and setting: in the case of A15G G29U C50G it was 5.06e-05 ± 2.4e-05 s⁻¹.
For G35C G41A U45C, the “self-cleavage kobs at 2500 uM GlcN6P” value was under 1e-05 s⁻¹.
Consider C34G G35A U49C, for which the “self-cleavage kobs at 2500 uM GlcN6P” value is under 1e-05 s⁻¹.
Same read-out and setting: then C16G U30C C34G U55C C61U C67U, with under 1e-05 s⁻¹; and U30C G40U G51U, with under 1e-05 s⁻¹.
As for A33U G51C A53C, the “self-cleavage kobs at 2500 uM GlcN6P” value was under 1e-05 s⁻¹.
With C34A A36C U47A G62C C68G, the “self-cleavage kobs at 2500 uM GlcN6P” value was under 1e-05 s⁻¹.
Still for that read-out and setting: in the case of G29A A33U U57C C58A it was under 1e-05 s⁻¹; in that of U30G A33U G35A A64G, under 1e-05 s⁻¹; in that of U30A A33U C34A A36C G37C U57G, under 1e-05 s⁻¹.
In the case of A15U G38U G51A, the “self-cleavage kobs at 2500 uM GlcN6P” value is under 1e-05 s⁻¹.
In the case of G35C G40C C70G, the “self-cleavage kobs at 2500 uM GlcN6P” value is under 1e-05 s⁻¹.
Still for that read-out and setting: in the case of U30G G44C C70U it was under 1e-05 s⁻¹; in that of G35U A42U G59U, under 1e-05 s⁻¹; in that of G26U G43C, under 1e-05 s⁻¹.
The same measure, in the same setting: in the case of C34U U45G U56A it was under 1e-05 s⁻¹; in that of C34U G43C A52U, under 1e-05 s⁻¹.
G29C A33C G66U C70G: the “self-cleavage kobs at 2500 uM GlcN6P” value was under 1e-05 s⁻¹.
On the same count and under the same terms, then U31G G43C U49A, with under 1e-05 s⁻¹; and U30G G32C, with 0.000149 ± 3e-05 s⁻¹; and U31G C61A C67A, with 0.000101 ± 2.8e-05 s⁻¹.
The same measure, in the same setting: in the case of G29U G51U G60U it was under 1e-05 s⁻¹.
On the same count and under the same terms, then G35U G51U C58A G59C C71G, with under 1e-05 s⁻¹; and C34G C71A, with under 1e-05 s⁻¹.
As to A15G G40C G59U G63A, the “self-cleavage kobs at 2500 uM GlcN6P” value is under 1e-05 s⁻¹.
The same measure, in the same setting: then G29A G44C U54C, with under 1e-05 s⁻¹; and A36U U57A C68U, with under 1e-05 s⁻¹.
Still for that read-out and setting: then A36C A64C C71G, with under 1e-05 s⁻¹.
Same read-out and setting: in the case of G32U U46C C68A C71U it was under 1e-05 s⁻¹; in that of C16A U54C U56G G60U, under 1e-05 s⁻¹.
On to U30A A53U G63C, for which the “self-cleavage kobs at 2500 uM GlcN6P” value is under 1e-05 s⁻¹.
For G32U C34U A42G U46C A64C, the “self-cleavage kobs at 2500 uM GlcN6P” value is under 1e-05 s⁻¹.
On the same count and under the same terms, in the case of G29U G32C U56A it was 7.28e-05 ± 1.4e-05 s⁻¹.
Still for that read-out and setting: then C34U A36C A39U, with under 1e-05 s⁻¹.
Same read-out and setting: then U31G G38C C50U, with under 1e-05 s⁻¹; and U31C G60U U69A, with under 1e-05 s⁻¹.
As for G29U U31A U69G C70A, the “self-cleavage kobs at 2500 uM GlcN6P” value was 8.63e-05 ± 2.8e-05 s⁻¹.
As for U31A A52U, the “self-cleavage kobs at 2500 uM GlcN6P” value worked out at 2.52e-05 ± 1.1e-05 s⁻¹.
C16A G29A C70A: the “self-cleavage kobs at 2500 uM GlcN6P” value was determined as 6.39e-05 ± 2.4e-05 s⁻¹.
Still for that read-out and setting: then G32C U46C U56G G62U, with under 1e-05 s⁻¹; and U31C G40U U46G, with 3.61e-05 ± 1.5e-05 s⁻¹; and G32U A48U G51C, with under 1e-05 s⁻¹.
Consider A15U G29C C50U, for which the “self-cleavage kobs at 2500 uM GlcN6P” value was under 1e-05 s⁻¹.
On to G26U C34A C50U C68G, for which the “self-cleavage kobs at 2500 uM GlcN6P” value is under 1e-05 s⁻¹.
For U30G U57A, the “self-cleavage kobs at 2500 uM GlcN6P” value was found to be 4.22e-05 ± 1.5e-05 s⁻¹.
Turning to G32C C34U U46A, the “self-cleavage kobs at 2500 uM GlcN6P” value is under 1e-05 s⁻¹.
On the same count and under the same terms, in the case of A33C G43U C71U it was under 1e-05 s⁻¹; in that of A15U C16A U30C A48C, under 1e-05 s⁻¹.
As for C19A C34U U45A A48U, the “self-cleavage kobs at 2500 uM GlcN6P” value was under 1e-05 s⁻¹.
Still for that read-out and setting: in the case of A33G G59C C68U it was under 1e-05 s⁻¹.
Same read-out and setting: in the case of U30G G41U G59U G63C it was under 1e-05 s⁻¹; in that of A33G A53G A64U C71U, under 1e-05 s⁻¹.
Same read-out and setting: in the case of C16A G37A C58U it was under 1e-05 s⁻¹.
On to A33C A42G U57G, for which the “self-cleavage kobs at 2500 uM GlcN6P” value is under 1e-05 s⁻¹.
Turning to G32A G35U A39C G63C C71U, the “self-cleavage kobs at 2500 uM GlcN6P” value is under 1e-05 s⁻¹.
As to G29C A33U G35U G37C C61G, the “self-cleavage kobs at 2500 uM GlcN6P” value is under 1e-05 s⁻¹.
On to A33U C34A G38A C50A C70G, for which the “self-cleavage kobs at 2500 uM GlcN6P” value came out at 0.00153 ± 0.0004 s⁻¹.
On to U31A G51A G62U, for which the “self-cleavage kobs at 2500 uM GlcN6P” value is under 1e-05 s⁻¹.
Take A36G U47A G51U A53U C58G: the “self-cleavage kobs at 2500 uM GlcN6P” value is under 1e-05 s⁻¹.
Same read-out and setting: then A15U A33G G40U G66C C67A, with under 1e-05 s⁻¹; and A15G U55A A64U, with 9.74e-05 ± 1.8e-05 s⁻¹.
The same measure, in the same setting: then U31G A39U A64C, with 6.17e-05 ± 2.3e-05 s⁻¹.
Still for that read-out and setting: in the case of U30C G40A G43A C68A it was under 1e-05 s⁻¹; in that of G29U G38C U56G, under 1e-05 s⁻¹.
Turning to G32C G38A C50U, the “self-cleavage kobs at 2500 uM GlcN6P” value was under 1e-05 s⁻¹.

In the next series the parent is B1. The series is described as follows: self-cleavage kobs at 10000 uM GlcN6P; higher = faster cleavage; RNA array. The following applies: with glucosamine-6-phosphate. An outline of the steps: as §1
As for G26U C58U, the “self-cleavage kobs at 10000 uM GlcN6P” value turned out to be 7.64e-05 ± 1.4e-05 s⁻¹.
On to G35C G41A U45C, for which the “self-cleavage kobs at 10000 uM GlcN6P” value is under 1e-05 s⁻¹.
As to U30G A33U G35A A64G, the “self-cleavage kobs at 10000 uM GlcN6P” value is under 1e-05 s⁻¹.
Regarding U30A A33U C34A A36C G37C U57G, the “self-cleavage kobs at 10000 uM GlcN6P” value was under 1e-05 s⁻¹.
With U31G G43C U49A, the “self-cleavage kobs at 10000 uM GlcN6P” value is under 1e-05 s⁻¹.
Same read-out and setting: in the case of U30G G32C it was 0.000134 ± 1.6e-05 s⁻¹.
Still for that read-out and setting: then U31A A52U, with 8.67e-05 ± 1.5e-05 s⁻¹.
In the case of U30G U57A, the “self-cleavage kobs at 10000 uM GlcN6P” value is 8.3e-05 ± 1.8e-05 s⁻¹.
On to U31G A39U A64C, for which the “self-cleavage kobs at 10000 uM GlcN6P” value turned out to be 4.91e-05 ± 1.3e-05 s⁻¹.
G32C G38A C50U: the “self-cleavage kobs at 10000 uM GlcN6P” value was under 1e-05 s⁻¹.

The values above are taken from the supplement of paper PMC7125110.
